Test results reported in PubChem BioAssay AID624417 (National Center for Advancing Translational Sciences (NCATS), 2012).
Out of some 410,000 compounds screened, about 6,400 (1.6%) were called active. The shares of active, inactive and inconclusive entries below differ from those in the screen. The call rests on the fitted dose curve; in most records, active means well fitted inhibition curve with a large enough effect; inconclusive means small, poorly fitted or top-dose-only effect; inactive means no such curve, though single readings can be large or run the other way. Where the call is inconclusive, the potency comes from a doubtful curve fit.

target: Glucagon-like peptide 1 receptor (Homo sapiens) (UniProt P43220); test: qHTS of GLP-1 Receptor Inverse Agonists (Inhibition Mode); conditions: HEK293 GLP-1R CRE-luciferase, luminescence, 24 h, GLP-1R form is constitutively active; activity change, negative = inhibition: at 38.3 µM (top of the series) unless noted; further: nearly all actives have a fitted effect of over 55% in size
Procedure, shortened: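 HEK293 cells stably co-expressing constitutively active GLP-1R and a cAMP-responsive luciferase reporter were seeded in DMEM with 10% Nu serum, given compounds after 12 h, and incubated 24 h at 37 deg C. Luminescence was then read.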
On the % scale 0 is the no-effect control and ±100 the full control effect; potency means the concentration at half of the fitted maximal effect; tags describe the fitted curve by direction and shape.

Sequence of UniProt P43220 (P43220 whole entry, looked up): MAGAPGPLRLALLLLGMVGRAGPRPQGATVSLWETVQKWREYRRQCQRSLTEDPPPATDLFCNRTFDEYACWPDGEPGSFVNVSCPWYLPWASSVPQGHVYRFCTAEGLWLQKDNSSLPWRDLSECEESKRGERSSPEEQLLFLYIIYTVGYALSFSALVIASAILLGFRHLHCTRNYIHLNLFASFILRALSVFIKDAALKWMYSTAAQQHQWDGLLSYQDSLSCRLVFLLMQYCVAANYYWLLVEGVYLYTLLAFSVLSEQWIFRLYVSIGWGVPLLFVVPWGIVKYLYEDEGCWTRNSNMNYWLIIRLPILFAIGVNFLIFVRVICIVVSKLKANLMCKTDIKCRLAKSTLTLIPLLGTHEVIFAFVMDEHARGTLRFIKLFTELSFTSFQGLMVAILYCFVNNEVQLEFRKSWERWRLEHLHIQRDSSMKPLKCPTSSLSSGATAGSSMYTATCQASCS

Compound | Potency | activity change, negative = inhibition
O=C(CCn1ccc2ccccc21)NC1CCCc2ccccc21 (configuration not stated) | inconclusive: 17.8 µM [inhibitor, partial curve, poor fit] | 
COc1ccc(CNC(=O)C(=O)Nc2c3c(nn2-c2ccccc2)CSC3)cc1 | inactive | 
Cc1ccc(NC(=O)C2CCC(C(C)(C)C)CC2)cc1S(=O)(=O)N1CCOCC1 (configuration not stated) | inconclusive: 11.2 µM [inhibitor, partial curve, poor fit] | 
COc1ccccc1CCC(=O)Nc1ccc2c(c1)c(=O)n(C)n2-c1cccs1 | inconclusive: 3.55 µM [inhibitor, full curve, poor fit] | 
O=C(Nc1ccccc1)Nc1cccc(Cl)c1 | inconclusive: 28.2 µM [inhibitor, single point] | 
CCN(CC)C(=O)c1c(-c2ccccc2)oc2ccc(OC)cc12 | inconclusive: 31.6 µM [inhibitor, partial curve, poor fit] | 
O=C(Cc1c[nH]c2ccccc12)N1CCN(S(=O)(=O)c2ccc(Cl)cc2)CC1 | inconclusive: 12.6 µM [inhibitor, partial curve, poor fit] | 
CN(NS(=O)(=O)c1ccc(Br)cc1)c1nc(C(F)(F)F)nc2ccccc12 | inconclusive: 11.2 µM [inhibitor, partial curve] | 
C/C(CC(=O)Nc1ccc2c(c1)OCCO2)=N\NC(=O)COc1ccccc1C | inconclusive: 31.6 µM [inhibitor, single point] | 
CCCCC[C@H](O)/C=C/[C@@H]1[C@@H](C/C=C\CCCC(=O)OC)[C@@H](O)C[C@H]1O | inactive | 
Cc1ccc(S(=O)(=O)N2CCCCC2)cc1NC(=O)Cn1ccsc1=N | inconclusive: 8.91 µM [inhibitor, partial curve, poor fit] | 
Cc1nc(N2CCC(C)CC2)c2c(C)c(C(=O)Nc3cc(F)ccc3C)sc2n1 | active: 10 µM | 
CCOC(=O)C1(CCOC)CCN(Cc2cccc(OCc3ccccc3)c2)CC1 | inconclusive: 14.1 µM [inhibitor, partial curve, poor fit] | 
CC(=O)N1CCc2cc(S(=O)(=O)Nc3cccc(C(F)(F)F)c3)ccc21 | inconclusive: 25.1 µM [inhibitor, single point] | 
CN(C)CCNC(=O)c1ccc(Sc2ccc(Br)cc2)c([N+](=O)[O-])c1 |  | inconclusive: -34.7% [inhibitor] [at 0.307 µM]
Cc1csc(CNC(=O)c2cc(COc3c(C)cccc3C)on2)n1 | inconclusive: 10 µM [inhibitor, partial curve, poor fit] | 
CCOc1ccc(S(=O)(=O)NC2CCCC2)cc1C | inconclusive: 28.2 µM [inhibitor, single point] | 
